Results on 20 molecules are retold here after publication PMC9911399, “Two distinct binding modes provide the RNA-binding protein RbFox with extraordinary sequence specificity”.

Changes are numbered by the printed parent chain; changes in the protein carry UniProt numbers. This is one part of the list.

B1: UGACAUG (DNA:RNA)
RNA: GGGAGACCGGAAUUCAGAUUGUCCUGACAUGUUAAAUCCCGUCGUAGCCACCA
DNA 1: CAATCTGAATTCCGGTCTCCC
DNA 2: TGGTGGCTACGACGGGATT
B2: GGCAUGG (DNA:RNA)
RNA: B1 RNA with U25G, A27C, C28A, A29U, U30G
DNA 1: CAATCTGAATTCCGGTCTCCC
DNA 2: TGGTGGCTACGACGGGATT
B3: AGCGUCC (DNA:RNA)
RNA: B1 RNA with U25A, A27C, C28G, A29U, U30C, G31C
DNA 1: CAATCTGAATTCCGGTCTCCC
DNA 2: TGGTGGCTACGACGGGATT
B4: AGUGACC (DNA:RNA)
RNA: B1 RNA with U25A, A27U, C28G, U30C, G31C
DNA 1: CAATCTGAATTCCGGTCTCCC
DNA 2: TGGTGGCTACGACGGGATT
B5: CUCCACC (DNA:RNA)
RNA: B1 RNA with U25C, G26U, A27C, U30C, G31C
DNA 1: CAATCTGAATTCCGGTCTCCC
DNA 2: TGGTGGCTACGACGGGATT
B6: UUGCCAA (DNA:RNA)
RNA: B1 RNA with G26U, A27G, A29C, U30A, G31A
DNA 1: CAATCTGAATTCCGGTCTCCC
DNA 2: TGGTGGCTACGACGGGATT
B7: AUAAAAA (DNA:RNA)
RNA: B1 RNA with U25A, G26U, C28A, U30A, G31A
DNA 1: CAATCTGAATTCCGGTCTCCC
DNA 2: TGGTGGCTACGACGGGATT
B8: UACCGGA (DNA:RNA)
RNA: B1 RNA with G26A, A27C, A29G, U30G, G31A
DNA 1: CAATCTGAATTCCGGTCTCCC
DNA 2: TGGTGGCTACGACGGGATT
B9: UGGGGCU (DNA:RNA)
RNA: B1 RNA with A27G, C28G, A29G, U30C, G31U
DNA 1: CAATCTGAATTCCGGTCTCCC
DNA 2: TGGTGGCTACGACGGGATT
B10: UUGUCGU (DNA:RNA)
RNA: B1 RNA with G26U, A27G, C28U, A29C, U30G, G31U
DNA 1: CAATCTGAATTCCGGTCTCCC
DNA 2: TGGTGGCTACGACGGGATT
B11: CCGUCGC (DNA:RNA)
RNA: GGGAGACCGGAAUUCAGAUUGUCCCCGUCGCUUAAAUCCCGUCGUAGCCACCA
DNA 1: CAATCTGAATTCCGGTCTCCC
DNA 2: TGGTGGCTACGACGGGATT
B12: UCAAAAA (DNA:RNA)
RNA: B1 RNA with G26C, C28A, U30A, G31A
DNA 1: CAATCTGAATTCCGGTCTCCC
DNA 2: TGGTGGCTACGACGGGATT
B13: UGCUGCC (DNA:RNA)
RNA: B11 RNA with C25U, C26G, G27C, C29G, G30C
DNA 1: CAATCTGAATTCCGGTCTCCC
DNA 2: TGGTGGCTACGACGGGATT
B14: GUCAGAG (DNA:RNA)
RNA: B1 RNA with U25G, G26U, A27C, C28A, A29G, U30A
DNA 1: CAATCTGAATTCCGGTCTCCC
DNA 2: TGGTGGCTACGACGGGATT
B15: CCUAACC (DNA:RNA)
RNA: B11 RNA with G27U, U28A, C29A, G30C
DNA 1: CAATCTGAATTCCGGTCTCCC
DNA 2: TGGTGGCTACGACGGGATT
B16: GGCUCAG (DNA:RNA)
RNA: B11 RNA with C25G, C26G, G27C, G30A, C31G
DNA 1: CAATCTGAATTCCGGTCTCCC
DNA 2: TGGTGGCTACGACGGGATT
B17: ACCCUGA (DNA:RNA)
RNA: B11 RNA with C25A, G27C, U28C, C29U, C31A
DNA 1: CAATCTGAATTCCGGTCTCCC
DNA 2: TGGTGGCTACGACGGGATT
B18: UCGGUUU (DNA:RNA)
RNA: B11 RNA with C25U, U28G, C29U, G30U, C31U
DNA 1: CAATCTGAATTCCGGTCTCCC
DNA 2: TGGTGGCTACGACGGGATT
B19: GACUAUU (DNA:RNA)
RNA: B1 RNA with U25G, G26A, A27C, C28U, G31U
DNA 1: CAATCTGAATTCCGGTCTCCC
DNA 2: TGGTGGCTACGACGGGATT
B20: UCUUUUG (DNA:RNA)
RNA: B1 RNA with G26C, A27U, C28U, A29U
DNA 1: CAATCTGAATTCCGGTCTCCC
DNA 2: TGGTGGCTACGACGGGATT

The target in the experiment is T1, RBFOX1 RRM (Homo sapiens, UniProt Q9NWB1 109-208).
T1 sequence: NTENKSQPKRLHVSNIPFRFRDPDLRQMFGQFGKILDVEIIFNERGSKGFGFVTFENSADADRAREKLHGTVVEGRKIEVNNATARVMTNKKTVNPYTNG
Nature of the experiment: EMSA; HiTS-Eq, 1 nM pool, 10 min; buffer printed only for the single-RNA assays: 10 mM Tris pH 7.5, 150 mM NaCl, 3.4 mM EDTA, 0.001% NP-40, 30 C. The conditions noted are these: tags: His6 N-terminal (pET28a); label: 5' 32P. Put shortly: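 Purified wild-type or mutant RbFox RRM at increasing concentrations was equilibrated with 1 nM of 5′-radiolabelled RNA carrying 7 randomized nucleotides for 10 min in 50 µL. Unbound RNA was separated by 8% native PAGE and sequenced. Relative association constants came from read-count changes of each RNA species compared with the control reaction, normalised to the cognate motif.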
Turning to B1, the binding signal is 0.0186 KA relative to UGCAUGU.

With B2, the binding signal was 0.104 KA relative to UGCAUGU.

Consider B3, for which the binding signal is 0.00856 KA relative to UGCAUGU.

As to B4, the binding signal was 0.00568 KA relative to UGCAUGU.

Take B5: the binding signal is 0.00389 KA relative to UGCAUGU.

On to B6, for which the binding signal was 0.0126 KA relative to UGCAUGU.

Consider B7, for which the binding signal is 0.00125 KA relative to UGCAUGU.

As for B8, the binding signal is 0.00211 KA relative to UGCAUGU.

B9: the binding signal is 0.0267 KA relative to UGCAUGU.

For the molecule B10, the binding signal is 0.0256 KA relative to UGCAUGU.

Consider B11, for which the binding signal was 0.0119 KA relative to UGCAUGU.

Take B12: the binding signal was 0.00186 KA relative to UGCAUGU.

On to B13, for which the binding signal was 0.0265 KA relative to UGCAUGU.

On to B14, for which the binding signal is 0.0183 KA relative to UGCAUGU.

B15: the binding signal is 0.00241 KA relative to UGCAUGU.

For B16, the binding signal is 0.0135 KA relative to UGCAUGU.

Regarding B17, the binding signal was 0.00529 KA relative to UGCAUGU.

In the case of B18, the binding signal is 0.0186 KA relative to UGCAUGU.

Consider B19, for which the binding signal is 0.00334 KA relative to UGCAUGU.

Take B20: the binding signal was 0.0224 KA relative to UGCAUGU.
